Consider 69 compounds from PubChem BioAssay AID1347073 (National Center for Advancing Translational Sciences (NCATS), 2019).

The campaign covered roughly 45,000 compounds. About 200 (0.44%) were called active. About 7% were inconclusive and are not listed. The call rests on the fitted dose curve; in most records, active means well fitted activation curve with a large enough effect; inconclusive means small, poorly fitted or top-dose-only effect; inactive means no such curve, though single readings can be large or run the other way. Some of the results follow.

This experiment can be described thus: qHTS of TDP-43 Inhibitors: NCGC Sytravon Library Screen. Further: 0% is about no effect; nearly all actives have a fitted effect of over 55% in size. Conditions: yeast TDP-43 toxicity rescue, BacTiter-Glo growth, 24 h; series mostly up to 46.1 µM; growth rescue (activation): at the top concentration. In outline: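 TDP-43-expressing yeast, pregrown in raffinose, seeded at OD600 0.02 in galactose medium with compound for 24 hr at 30 deg C. Growth read by BacTiter-Glo luminescence, so rescue of toxicity appears as activation.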
(In general: qHTS replaces the single test concentration by a dilution series.)
For `C/C(=N\Nc1cccc(Cl)c1)c1ccc(-n2ccnc2)cc1`, the “growth rescue (activation)” value is inactive: -3.56%. For `N#Cc1c(SCC(=O)O)nc(N2CCOCC2)c2c1CCCC2` the value was inactive: 18.1%. As for `CN(C)S(=O)(=O)c1cccc(NC(=O)CCCSc2ccccc2)c1`, the figure is inactive: 18.5%; as for `CCOc1ccccc1N(CC(=O)NCc1ccncc1)S(=O)(=O)c1ccccc1`, inactive: -2.92%. As for `Nc1nc(SCC(=O)Nc2cccnc2Cl)n[nH]1`, the figure is inactive: 6.17%; as for `CC(C)Oc1ccc(C(=O)Nc2ccc(N3CCN(C(=O)c4ccco4)CC3)cc2)cc1`, inactive: 9.73%; as for `N#Cc1ccccc1Cn1c(=O)n(-c2ccc(F)c(Cl)c2)c(=O)c2sccc21`, inactive: 2.34%. For `CSc1ccccc1NC(=O)CSc1cccc[n+]1[O-]`, the “growth rescue (activation)” value is inactive: -26.4%. As for `O=C(C1=C(Nc2ccccc2)c2ccccc2S(=O)(=O)N1)c1ccccc1`, the figure is inactive: 8.23%.

As for `S=c1nc[nH]c2c1[nH]c1ccc(Cl)cc12`, the “growth rescue (activation)” value is inactive: 4.07%. For `Cn1c(=O)n(C)c2cc([N+](=O)[O-])c(N3CCN(C(=O)c4ccc(F)cc4)CC3)cc21` the value was inactive: 10.1%; for `COc1ccccc1-c1c(NC(=O)c2ccco2)n(C)c2ccccc2c1=O`, inactive: 8.58%.

For the compound `CCC(C)NC(=S)N(CCc1ccccc1)Cc1cc2cc(OC)c(OC)cc2[nH]c1=O` (centres undefined), the “growth rescue (activation)” value is inactive: 26.9%. For `CCN(CC)C(=O)CN1CCN(Cc2ccc3c(c2)OCO3)CC1` the value was inactive: -3.03%; for `Cc1noc(NS(=O)(=O)c2ccc(NC(=O)c3cc4ccccc4o3)cc2)c1C`, inactive: 25.9%. As for `O=C(COC(=O)Cn1cnc2ccccc2c1=O)NNC(=O)c1ccc(Br)cc1`, the figure is inactive: 10.6%; as for `O=C(Nc1ccnn1C1CCN(C2CCC2)CC1)c1ccccc1`, inactive: -10.9%; as for `COc1ccc(C(C)(O)c2nc(-c3ccc(Cl)cc3)cs2)cc1` (centres undefined), inactive: 2.07%. With `CCCCN(C)c1c(C)nc2ccc(C(=O)N(CC)CCN(C)C)cn12`, the “growth rescue (activation)” value was inactive: 7.86%. As for `Cc1ccccc1CN(C)C(=O)c1ccc2ccccc2n1`, the figure is inactive: 24.3%; as for `Cc1cc(C(C)(C)C)cc(C)c1CCNC(=O)c1ccc[n+]([O-])c1`, inactive: 12.8%. As for `O=C(CCN1C(=O)S/C(=C/c2ccc(Cl)cc2)C1=O)N1CCOCC1`, the figure is inactive: 10%; as for `CCSc1nnc(NC(=O)[C@@H](NC(=O)c2ccccc2)C(C)C)s1`, inactive: 8.89%. For `COc1ccc(NC(=O)CCSc2ccc(C)cc2)cc1` the value was inactive: 25.6%; for `CCN(CC(=O)NC1CCS(=O)(=O)C1)S(=O)(=O)c1ccc(F)cc1` (centres undefined), inactive: 6.94%; for `COc1cc(NC(=O)COc2ccc(Cl)cc2)ccc1NC(=O)C(C)C`, inactive: 21.1%. Regarding `CC(NC(=O)C1CCCN1S(=O)(=O)c1ccc2c(c1)n(C)c(=O)c(=O)n2C)c1ccccc1` (centres undefined), the “growth rescue (activation)” value is inactive: -16.3%. `CN1CCCN(C(=O)CNC(=O)c2ccc(Cl)cc2Cl)CC1`: the “growth rescue (activation)” value is inactive: 0.285%. As for `CC(=O)c1ccc(NC(=O)c2cccc(N3C(=O)c4ccccc4C3=O)c2)cc1`, the figure is inactive: -17.4%; as for `NNc1nc(N)c2c(n1)-c1ccccc1CC21CCCC1`, inactive: 13.9%; as for `COc1ccc2cc(C(=O)NCc3ccccc3)c(=Nc3ccc(C(=O)O)cc3)oc2c1`, inactive: 9.87%. `O=c1[nH]n(-c2ccccc2Cl)c(=O)c2ccccc12`: the “growth rescue (activation)” value is inactive: 1.47%.

`Cc1cc(SCC(=O)Nc2ccc3[nH]c(=O)[nH]c3c2)nc2ccccc12`: the “growth rescue (activation)” value is inactive: -2.97%. For `Cc1nc2ccccc2nc(C)c1=NOCc1ccc(C#N)cc1`, the “growth rescue (activation)” value was inactive: -7.72%. As for `O=C(CSc1n[nH]c(-c2cccnc2)n1)Nc1ccc([N+](=O)[O-])cc1`, the figure is inactive: 13.6%.

Turning to `Cc1ccc(CNC(=O)C(Cc2ccccc2)n2cccc2)cc1` (centres undefined), the “growth rescue (activation)” value is inactive: 13.3%. For `COc1cc(C(=O)NC2CCN(CC(=O)NC3CCCCC3C)CC2)cc(OC)c1OC` (centres undefined) the value was inactive: 10.9%.

Turning to `CCn1c(COc2ccc(C)cc2)nnc1SCC(=O)NCc1ccco1`, the “growth rescue (activation)” value is inactive: 1.4%. Take `CC(=O)c1ccc(NC(=S)N(CCCN(C)C)Cc2ccccc2)cc1`: the “growth rescue (activation)” value is inactive: 4.43%. As for `CC(CC(=O)N1CCN(c2ccccc2)CC1)c1ccccc1` (centres undefined), the figure is inactive: 8.23%; as for `Cc1cc(C)c(NC(=O)CCCCCNC2CCCCC2)c(C)c1`, inactive: -3.38%; as for `CCC(O)C1CCN(C(=O)c2cc(COc3ccc4ncccc4c3)on2)CC1` (centres undefined), inactive: 8.3%.

With `O=C(CN1CCCN(S(=O)(=O)c2ccc(F)cc2)CC1)Nc1c(Cl)cccc1Cl`, the “growth rescue (activation)” value was inactive: -3.3%. As for `COc1ccc(Cl)cc1N(CC(=O)N1CCCC1)S(=O)(=O)c1ccc(C)cc1`, the figure is inactive: -0.61%.

Turning to `Cc1ccccc1OCCNC(=O)c1ccco1`, the “growth rescue (activation)” value was inactive: 21.8%.

Turning to `O=C(COC(=O)c1ccc(S(=O)(=O)N2CCCC2)cc1)NCc1ccco1`, the “growth rescue (activation)” value is inactive: 18.1%. As for `COc1ccc(NC(=O)CCCNC(=O)c2ccc(Cl)cc2)c(OC)c1`, the figure is inactive: 0.427%; as for `NS(=O)(=O)c1ccc(CCNC(=O)C(c2ccccc2)c2ccccc2)cc1`, inactive: 3.31%. As for `CCc1ccccc1NC(=S)N(CCN1CCOCC1)C1CCN(C(C)=O)CC1`, the figure is inactive: -5.95%; as for `CCn1cc(C(=O)NCc2ccc(Cl)cc2)c(=O)c2cc(S(=O)(=O)N(C)C)ccc21`, inactive: 8.8%.

Consider `Cc1cc(C=O)c(C)n1-c1ccc(Oc2ccc([N+](=O)[O-])cn2)cc1`, for which the “growth rescue (activation)” value was inactive: 3.7%. As for `Cc1nnc(SCc2nc3sc4c(c3c(=O)[nH]2)CCCC4)n(N)c1=O`, the figure is inactive: 6.65%. For `Cc1nc(Cn2c3ccc(NC(=S)NC4CCCCC4)cc3c(=O)n2C)cs1` the value was inactive: 1.98%; for `COc1ccc(Cl)cc1NC(=O)CCN1C(=O)C2C3C=CC(C4CC34)C2C1=O` (centres undefined), inactive: 20.9%. Turning to `O=C(CN1C(=O)NC2(CCCC2)C1=O)NCc1ccc(F)cc1`, the “growth rescue (activation)” value is inactive: 4.48%. For `O=C(NC(=S)Nc1nc2ccccc2s1)c1ccco1` the value was inactive: 7.6%. For `CC(C)c1ccc(/C=N/N2CCN(c3ccccn3)CC2)cc1` the value was inactive: 21.6%; for `COC(=O)C1CC(=O)N(Cc2ccccc2)C1` (centres undefined), inactive: 7.05%; for `CSc1ncccc1C(=O)Nc1ccc2c(c1)OCCO2`, inactive: 16%.

In the case of `COc1ccccc1NC(=O)Nc1ccc2c(c1)nnn2C`, the “growth rescue (activation)” value was inactive: -8.22%. For `COC(=O)c1ccc(N2C(=O)c3cc(N4CCOCC4)c([N+](=O)[O-])cc3C2=O)cc1` the value was inactive: -14%; for `CCOc1ccc(S(=O)(=O)Nc2cnc3ccccc3c2)cc1`, inactive: 19.9%.

For the compound `CC(/C=N/NC(=O)c1ccc2nc(C)[nH]c2c1)=C\c1ccccc1`, the “growth rescue (activation)” value was inactive: 9.65%. For `Cc1[nH]c2ccccc2c1/C=N/NC(=O)c1cccs1` the value was inactive: 18.8%; for `COc1ccc(N2CCN(C(=O)CNC(=O)Cc3ccc(Cl)cc3)CC2)cc1`, inactive: 9.37%. With `O=Cc1ccc(-c2nc3ccccc3s2)o1`, the “growth rescue (activation)” value is inactive: -0.318%. As for `CC1=Nc2ccccc2N=C(NC(=O)/C=C/C(=O)O)C1c1ccccc1` (centres undefined), the figure is inactive: 0.409%; as for `O=C(O)c1ccc(-n2ccnc2)c([N+](=O)[O-])c1`, inactive: 13.9%. Turning to `O=C(Nc1ccc(N2CCCCCC2)cc1)c1ccccc1Cl`, the “growth rescue (activation)” value is inactive: -4.55%.
